Laboratory results from the supplement of paper PMC10126150.
Values marked as one replicate rest on one cluster of the flow cell; about a third of the high ones do not repeat.

Test system: ATP
Test: switch fluorescence ratio, 500 uM ATP over buffer (Cy3 cluster intensity, sum of 5 cycles each) (fold (ratio)); higher = stronger signal-on switching upon ATP binding; sequences stand for … in TCGTCGGCAGCGTCAGATGTGTATAAGAGACAGTTTTTTTTTTTTTTTTTTTTTTTTT…TC
Conditions: aptamer strand: ATP DNA aptamer (quencher-CACCTGGGGGAGTATTGCGGAGGAAGG + anchor), 100 nM annealed; ATP concentration: 500 uM; one replicate
In short: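 Cy3-labelled switching-strand clusters on a modified Illumina MiSeq flow-cell were annealed to 100 nM quencher-labelled ATP aptamer, imaged in selection buffer, then imaged after 15 min with 500 uM ATP at 22 °C. Five buffer/ATP cycles ran, with NaOH stripping and re-annealing between them. The fluorescence ratio is summed target-cycle over summed buffer-cycle Cy3 intensity per cluster, averaged per switch-domain sequence. Clusters outside 100-1000 RFU were excluded.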
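Also: ATP exposure 15 min at 22 °C before imaging.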

Sequence	switch fluorescence ratio
AATTACCACA	1.06
CCCTAGATTT	0.984
ATCCCGACCC	1.14
GCGCGTTGTA	1.01
GAAATGGCCA	0.997
TACTGGCCAG	0.99
AGCCTGGGAT	0.996
ACCTGGACGG	1.08
CCTTCCTGAG	2.73
AGAACGAGCG	0.99
GATCGCTGA	1.1
GCAATTTCGT	1.06
CGTCTATCCG	1.05
AAAACGTACG	1.27
CAGAGAGGAT	1.02
CCGATATATG	1.1
GCACCCTTCG	1.26
TGTCCTTTTT	0.972
GGGACCGTGA	1.02
GAAGTAGCTT	0.983
TCATGATTGG	0.982
AGGCTTACAT	0.958
ACCAATCCAT	0.986
CAGTGTGACC	0.937
TACTTTATGG	0.963
CTATACGTCT	0.99

Sequence	switch fluorescence ratio
TTTACCACAA	1.06
AACCAGTAG	1.05
AGTACAATCT	1.05
CGCCTGTGTC	1.01
CATCAAAATG	0.995
TGCCGTTCCC	1.01
CATTAATCCA	1.04
AGTATGATTG	0.959
GAGTTTTCCC	1.02
TTGCCGATGC	1.03
CCTATTTGAA	0.991
AAGCCAGCTG	0.923
TCTAGGCTGC	0.967
TTAAGTAAG	1.03
ATAACGTATA	1.15
TGAGAGGGG	0.962
CTCCATCGTT	1.04
CAGTACTCGC	1.18
GGGTGAGCCT	1.02
TTCACTAT	0.98
CTAAGCTTAG	0.989
TTGTCCAATG	1.05
TGGCAGGGGA	1.02
CTATTCTGGG	0.991
TGAGGAAAAT	1.01
ACATCATTCG	1.07

Sequence	switch fluorescence ratio
CCGTACTATA	1.36
GCCAGAGTGC	1.18
TTCTGCCTGG	0.995
CATGTGTTCC	1.05
TCTTTGTGT	0.989
CCACTATATC	1.48
TCCCTTGAAT	1.02
TGGCTAAGCA	1.01
CTTGGAAGGA	0.985
ATGTAGAATT	1.03
CGTGAAGAGC	1.01
ACGCGCTCGG	1.05
AGAAATGTTG	0.943
CGCGTGAACC	1.04
AGCAAAACTT	1.55
ACGCGGGAGA	1.05
ACTCAGTGA	1.12
GAAGACCCCC	1.54
ATATGCAGGT	1.04
TAACAAGGTA	1.09
GATAGCGACT	0.958
CGTCATAAAA	1.02
GTTTAGGTGC	1.12
GATCGTTCT	1.03
TCTTGGGGAT	1.11
TTATATGGTA	1.04

Sequence	switch fluorescence ratio
CCGCATCTTT	2.85
GAGAGCCAAG	0.972
CGGCCATCAG	0.96
CCCGAAATAA	4.12
GGTTACCT	1.12
TGTAACTTAA	1.07
GACTCGGGGT	0.964
CTAATGCAGG	1.02
GCCGTAAAGC	1.05
CGTTTCGAAC	0.999
TATTTTCA	0.985
CGGAGCACGT	1.47
CACTAAGAGA	1.04
TCAACGGGAT	1.01
GGTGGGTGG	0.997
GATGTAAGTA	1
TGGATTAGTG	0.973
CATAGATTTA	0.996
GGCGCTCATT	1.05
CCTAACACAG	1.06
CGCGCATGCT	1.2
CAGGGGTG	1.09
CATGAGCTGG	1.02
AATGGATGGT	0.986
AACTTGCATA	1.07
TTAATCGGG	1.03

Sequence	switch fluorescence ratio
CGTCACTCGT	1
ATAATGATGA	1.02
GTTAGCACTG	1.08
TCAGGTTGGC	1.15
TTGGGATC	1
GCGGGACTTC	1.02
ATATTAGTGG	0.985
CGCGTATGCA	0.974
TTCACGTTTC	1.04
TTTCGAGTA	0.999
ACATGAAAAT	1.03
ACTTCGCGCC	2.34
TGGTTATGAT	0.969
CAGACAACGC	1.06
GGTTGATGCG	0.981
AAATGTTCGA	0.998
CGTCACGTGA	1
GTCTCAGGCA	1.08
AAGTGTTTAA	0.954
GGAGGATAGG	1.05
CTACCCAGTG	3.45
GGGATAGTGT	0.998
CCTGAAATAA	1.17
TCCAGACGCT	1.28
CGTCCAAGAA	1.07
GAGTAATATA	1.02

Sequence	switch fluorescence ratio
ACGCGAGTAA	1.02
CGCAATGTC	1.26
TGAGTTTGTC	0.933
GGATATGT	0.958
TCGAGAGG	1.05
TTGGTATAGA	0.986
CAAAGACGAC	1.2
TGTTTTGGTA	0.99
TGGGTTATTC	1.04
GACCGATGCG	0.999
TACTATAGAG	1.05
GGGGTTATAC	1.06
ATGCGGTAAT	0.973
TGGCACTGGG	1.04
GTATCTAGAC	1
GGATTCGTGC	1.01
TATAATGAGG	0.995
GTAAAAATGT	0.991
CAATGTCGAG	0.998
GGTGTGCGCG	0.995
TTTACACACT	1.32
ATCGAGGGCC	1.04
AGGGGATAA	1.01
CATCAACGAA	0.979
ACGGAGAGTG	1.03
AATGTATAGT	1.03

Sequence	switch fluorescence ratio
ATTGACAGTG	1.05
AGAATTCATT	1.02
ATCGGTTGCA	0.995
CCCTGGGGCG	1.03
ATTGGACTGT	1.05
ATTTAGTAGC	1.01
TTACGGAGTA	1.01
GGCGATCCTT	1.01
TTGCTCATCA	1.02
GATGGACTTG	1.02
ATGACAAGTG	1.01
GGCGGTTTAC	1.01
ATGGTACATG	0.985
TCAAGATGG	0.987
GACCGACCGT	1.37
TCAGCGGGAC	3.91
ACCACCCGGC	1.1
GATAGAAACA	1.02
TCGGCCTCTC	1.02
TGTGTTGTTA	0.985
ACTAGTACTA	1.08
TAAGATCCTT	1.01
CGATAGTACT	1.07
GGGCATTAGG	0.985
TTCTGTGATT	4.54
GGGAACCTGG	0.982

Sequence	switch fluorescence ratio
CGCAGTTTAA	1.14
GGGCTGAAAA	1
ATTATCCTTA	0.987
ATAGCCGGAT	1.11
CTGCTAGTCC	1.29
GACGTGAAGT	1.03
ATCTTATGCT	1.04
TGTCAGGGTA	0.996
AATTGTAAAC	1.01
TATAGAGGAT	1.08
ATCACTTCTA	1.06
CGGAAGAAGG	1.03
GACCCCGTTG	1
AGCATTAGAA	0.991
ATTAGGCCCG	0.95
TGCGCTGTTG	1
GGCCATATTG	1.04
CGGGTAGCCC	1.02
GGAGGGTGTT	1.09
